Variants at the floor of the assay are shown more often than the library holds them.
B1: tRNA (parent)
chain: CUCUCGGUAGCCAAGUUGGUUUAAGGCGCAAGACUUUAAUUUAUCACUACGAAAUCUUGAGAUCGGGCGUUCGACUCGCCCCCGGGAGAUUUUUUCCUCGAGCAA

Variants of: B1
Test: nonsense suppression (GFP-seq) (ratio to wild type); higher = more function; SUP4oc tRNA, yeast GFP reporter sort-seq
Outline: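 Yeast were grown in raffinose/galactose medium with 80 mg/L adenine, each strain bearing a genome-integrated ochre-suppressor tRNA variant from a ~3% random-mutation library, a galactose-driven GFP ochre reporter, and RFP. After sorting into GFP/RFP bins, every bin was sequenced on an Illumina platform at phred ≥30. The GFPSEQ value, a measure of nonsense suppression, is the weighted bin median GFP/RFP relative to the unmutated parent tRNA, using each variant's estimated cell share per bin as the weight. Only variants with ≥100 reads and ≥30 cells were included.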

| Variant | nonsense suppression |
| --- | --- |
| C82G C83G | ≤ 0.026 |
| C79A G85C | ≤ 0.026 |
| G86A | ≤ 0.026 |
| G86C | ≤ 0.026 |
| G86U | ≤ 0.026 |
| G84A A87G | 0.157 |
| G85C A87U | ≤ 0.026 |
| A87C G88U | ≤ 0.026 |
| C82G G88C | ≤ 0.026 |
| A87G A89C | ≤ 0.026 |
| C82U G88U | ≤ 0.026 |
| G85A A89U | ≤ 0.026 |
| G84A A89G | ≤ 0.026 |
| C81A A89G | ≤ 0.026 |
| C81G C82G | ≤ 0.026 |
| G84C A87C | ≤ 0.026 |
| C83A G86U | ≤ 0.026 |
| C80A G88C | ≤ 0.026 |
| C79A G86C | ≤ 0.026 |
| G78C G88C | ≤ 0.026 |
| C79U G88C | ≤ 0.026 |
| G84U | ≤ 0.026 |
| G84A | ≤ 0.026 |
| G84C | ≤ 0.026 |
| C79G C82A | ≤ 0.026 |
| G84C G86U | ≤ 0.026 |
| G84C G85C G88C | ≤ 0.026 |

| Variant | nonsense suppression |
| --- | --- |
| C82G A87G | ≤ 0.026 |
| G85A A87U | 0.19 |
| C80A C83U | ≤ 0.026 |
| G84A G86C | ≤ 0.026 |
| G84A G86U | ≤ 0.026 |
| G84A G86A | ≤ 0.026 |
| C80U C81A G84A G85C | ≤ 0.026 |
| C83A | ≤ 0.026 |
| C83U | 0.535 |
| C83G | ≤ 0.026 |
| C81U G84U | 0.065 |
| C81G A89U | ≤ 0.026 |
| C81A G86A | ≤ 0.026 |
| G78U C79A | ≤ 0.026 |
| C80U G88A | 0.0263 |
| G88C A89G | ≤ 0.026 |
| G88C A89U | ≤ 0.026 |
| C83A G88A | ≤ 0.026 |
| C80G G84C G88A | ≤ 0.026 |
| C79G G85A | ≤ 0.026 |
| C79U C82G G86U | ≤ 0.026 |
| C82A C83U | ≤ 0.026 |
| C82A C83A | ≤ 0.026 |
| G86U G88C | ≤ 0.026 |
| C80G C83G | ≤ 0.026 |
| C80A G86A | ≤ 0.026 |
| C81G A87U | ≤ 0.026 |

| Variant | nonsense suppression |
| --- | --- |
| C82U C83U | ≤ 0.026 |
| C79G G86C | ≤ 0.026 |
| C82A A89G | ≤ 0.026 |
| G85U G88C | ≤ 0.026 |
| C81G G85C A89G | ≤ 0.026 |
| C80G A87U G88C | ≤ 0.026 |
| G84A G88U | ≤ 0.026 |
| G84A G88A | ≤ 0.026 |
| C82A G85U | 0.0445 |
| G78U C83A G88U | ≤ 0.026 |
| G78U G85C | 0.0488 |
| G84C G88C | ≤ 0.026 |
| G84C G88U | ≤ 0.026 |
| C81U A87G | 0.239 |
| C80G G84A | ≤ 0.026 |
| C80U G86U | ≤ 0.026 |
| C80U G86A | ≤ 0.026 |
| C83G A87C G88C | ≤ 0.026 |
| G86U A87C | ≤ 0.026 |
| G85U G86U | ≤ 0.026 |
| C80G G88A | ≤ 0.026 |
| C83G G84C | ≤ 0.026 |
| C81A G85U | ≤ 0.026 |
| C83U A87U | ≤ 0.026 |
| G84U A89G | ≤ 0.026 |

From the RNAGym collection of RNA variant scans (doi:10.1101/gad.245936.114)
